Test results: PubChem BioAssay AID686979 (National Center for Advancing Translational Sciences (NCATS), 2013)
In all, about 420,000 compounds went through this assay and about 50,000 (12%) were called active. Inconclusive results, whose numbers are uncertain, are shown with a selection of clear calls. Calls come from the whole dose curve; as a rule, active = well fitted inhibition curve with a large enough effect; inconclusive = small, poorly fitted or top-dose-only effect; inactive = flat fitted curve, though single readings scatter. No potency is given beside an inconclusive call; the fits are too rough.

assay: qHTS for Inhibitors of human tyrosyl-DNA phosphodiesterase 1 (TDP1): qHTS in cells in presence of CPT; settings: chicken DT40 Tdp1-/-;hTDP1 cells + 20 nM CPT, ATP luminescence, 48 h; activity change, negative = growth inhibition: at 46.2 µM (top of the series); note: nearly all actives have a fitted effect of over 55% in size
Method in brief: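 Cell growth measured by CellTiter-Glo luminescence after a minimum 48 h, 37 C compound exposure with 20 nM CPT in Tdp1-knockout DT40 cells stably expressing hTDP1, seeded 400/well; qHTS titration format.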
% is set by controls: 0 for no effect and ±100 for the full control effect; potency is the fitted concentration of half-maximal effect; tags give direction and shape of the fitted curve.

Row | Structure (SMILES) | activity change, negative = growth inhibition | Potency
1 | O=[N+]([O-])c1cccc(-c2ccc3nnc(SCc4ccccn4)n3n2)c1 | inactive: -2.95% | 
2 | Cc1ccc([N+](=O)[O-])cc1S(=O)(=O)N1CCCN(C)CC1 |  | inconclusive [inhibitor, partial curve, poor fit]
3 | CC(=O)Nc1ccc(S(=O)(=O)N(CC(=O)Nc2cc(C)on2)Cc2ccc(F)cc2)cc1 |  | inconclusive [inhibitor, single point]
4 | CCCCCCN1C[C@@H](n2cc(COC(=O)c3ccccc3)nn2)[C@H](O)C[C@@H]1c1ccc(OC)cc1 |  | inconclusive [inhibitor, single point]
5 | COc1ccc(Nc2nc(N)nc(CSC(=S)N3CCN(c4ccccc4)CC3)n2)cc1 |  | inconclusive [inhibitor, partial curve]
6 | N#Cc1cc(Sc2ccccn2)c([N+](=O)[O-])cc1C#N | inconclusive: -31% [inhibitor] | 
7 | COc1ccc(CNC(=S)N/N=C(/C)c2ccccc2)cc1 | inactive: -0.822% | 
8 | O=C(COc1ccccc1)Nc1nnc(COc2ccccc2)s1 |  | inconclusive [inhibitor, single point]
9 | COc1ccccc1/C=C/C(=O)OCC(=O)Nc1c(C)nn(-c2ccccc2)c1C |  | inconclusive [inhibitor, single point]
10 | O=C(NCCc1ccc(F)cc1)C1CCC(=O)N(CC2CCCCC2)C1 (stereo unspecified) | inactive: -26.6% | 
11 | COc1cc(C(=O)Nc2ccc(-c3nnc(-c4ccco4)o3)cc2)cc(OC)c1OC |  | inconclusive [inhibitor, partial curve, poor fit]
12 | c1coc(-c2cc3nc(NC4CCCCC4)ccn3n2)c1 |  | inconclusive [inhibitor, partial curve, poor fit]
13 | CCOc1ccc2nc(SCc3ccc(F)cc3)sc2c1 |  | inconclusive [inhibitor, single point]
14 | COc1ccc2nc(SCC(=O)Nc3ccccc3)[nH]c2c1 |  | inconclusive [inhibitor, single point]
15 | CCCCN1C(=O)N(CCc2ccc(F)cc2)S(=O)(=O)c2cc(C(F)(F)F)ccc21 | inactive: -17.1% | 
16 | O=C(Cn1cnc2c(nnn2Cc2ccc(F)cc2)c1=O)N1CCCc2ccccc21 |  | inconclusive [inhibitor, single point]
17 | O=C1OCC2=C1C(c1ccc3c(c1)OCO3)c1cc3c(cc1O2)OCO3 (stereo unspecified) |  | active: 2.06 µM
18 | Cc1ccc(C23CC4CC(CC(C(=O)NC(C)C(=O)O)(C4)C2)C3)cc1 (stereo unspecified) | inactive: -0.969% | 
19 | Cc1c(C(=O)NCc2ccc3c(c2)OCO3)oc2ccc(S(=O)(=O)N3CCCC3)cc12 |  | inconclusive [inhibitor, single point]
20 | O=C(Nc1cc(Sc2nc3ccccc3s2)cc([N+](=O)[O-])c1)c1ccccc1 |  | inconclusive [inhibitor, single point]
21 | CN(C)CC1CCC/C(=C/c2ccc(Cl)cc2)C1=O (stereo unspecified) |  | active: 0.517 µM
22 | CN(C(=O)c1ccc2c(c1)OCO2)C1(C(=O)NC2CCCCC2)CCCCC1 | inactive: -29.4% | 
23 | Clc1ccc(-c2nn3c(-c4ccccc4)nnc3s2)cc1 |  | inconclusive [inhibitor, single point]
24 | CC(=NC1CCCCC1)C1=C(O)c2ccccc2C1=O |  | inconclusive [inhibitor, partial curve, poor fit]

Row | Structure (SMILES) | activity change, negative = growth inhibition | Potency
25 | CC1CC(C)CN(C/C=C/c2ccccc2[N+](=O)[O-])C1 (stereo unspecified) | inactive: -20.7% | 
26 | COc1ccc(-c2c(C#Cc3ccsc3)c3ccccc3n2C)cc1 |  | active: 20.6 µM
27 | CCCCCCN1C[C@H](n2cc(-c3ccc(F)cc3)nn2)[C@@H](O)C[C@@H]1c1ccccc1 |  | inconclusive [inhibitor, single point]
28 | Cc1ccc(-c2noc(-c3ccccc3C(=O)NCC3CCCO3)n2)cc1 (stereo unspecified) |  | inconclusive [inhibitor, single point]
29 | CC(C)Cc1ccc(C(C)C(N)=NCCc2ccccc2)cc1 (stereo unspecified) |  | inconclusive [inhibitor, single point]
30 | COc1ccc(/C=C2/SC(=S)N(Cc3ccccc3)C2=O)cc1O | inactive: -27.4% | 
31 | CCc1ccc(CNC(=O)CCn2c(=O)c3cccn3c3ccc(F)cc32)cc1 |  | inconclusive [inhibitor, single point]
32 | CCCCn1c(N)c(N(CCOC)C(=O)CSCC(=O)Nc2cccc(C)c2)c(=O)[nH]c1=O | inactive: -2.79% | 
33 | Cc1ccc(-n2nnc(-c3nsc(NC(=O)c4ccc(C)c(C)c4)n3)c2C)cc1 |  | active: 13 µM
34 | Cc1cccc(C)c1NC(=O)CN(C)C(=O)c1cccc(S(=O)(=O)N2CCN(c3ccc(F)cc3)CC2)c1 |  | active: 11.6 µM
35 | CC(=O)N1CCN(C(=S)Nc2ccc(Oc3ccccc3)cc2)CC1 | inactive: 21.2% | 
36 | CC(=O)N1c2ccccc2N2C(c3c(C)c(C)cc(C)c3C)=NON12 |  | inconclusive [inhibitor, full curve, poor fit]
37 | Cc1ccc(SCCNC(=S)Nc2ccc(C)c(C)c2)cc1 |  | inconclusive [inhibitor, single point]
38 | O=C(Nc1ccc(F)c(F)c1)C1CCCN1S(=O)(=O)c1cccc2nsnc12 (stereo unspecified) |  | inconclusive [inhibitor, single point]
39 | Cc1ccccc1CNC(=O)c1cc(COc2ccc(F)cc2F)on1 |  | inconclusive [inhibitor, single point]
40 | Cc1ccc(C(=O)NCCc2csc(-c3cccnc3)n2)cc1 |  | inconclusive [inhibitor, single point]
41 | Cn1c(=O)c2cc(S(=O)(=O)NC(C(=O)Nc3cccc(F)c3)c3ccccc3)ccc2n(C)c1=O (stereo unspecified) |  | inconclusive [inhibitor, single point]
42 | O=C(CSc1n[nH]c(-c2cccs2)n1)NCc1ccc2c(c1)OCO2 | inactive: -1.13% | 
43 | O=C(NCC1CCCO1)C(c1ccc(N2CCOCC2)cc1)N(C(=O)Cn1nnc2ccccc21)c1ccccc1F (stereo unspecified) | inconclusive: 1.12% [inhibitor] | 
44 | CCn1c(CN2CCCCC2)nc2cc(NC(=O)c3ccc([N+](=O)[O-])cc3)ccc21 |  | active: 9.2 µM
45 | OCCC1CN(Cc2ccc(F)cc2)CCN1CCCc1ccccc1 (stereo unspecified) |  | inconclusive [inhibitor, partial curve]
46 | CCOc1ccccc1NC(=O)COc1ccc(S(=O)(=O)NC2CCCCC2)cc1 |  | inconclusive [inhibitor, single point]
47 | COc1cccc(C(=O)Nc2ccc(C(=O)NCC3CCCO3)cc2)c1 (stereo unspecified) | inactive: 0.501% | 
48 | CCOc1ccccc1CNC(=O)c1cc(-c2ccc(C)c(C)c2)nc2ccccc12 |  | active: 20.6 µM

Row | Structure (SMILES) | activity change, negative = growth inhibition | Potency
49 | COC(=O)c1c(NC(=O)/C=C/C(=O)O)sc(C)c1-c1ccc(C)c(C)c1 |  | inconclusive [inhibitor, single point]
50 | CCOCCCN(C(=O)Cn1nnc(-c2ccc(C)o2)n1)C(C(=O)NC1CCCC1)c1ccc(C)o1 (stereo unspecified) |  | inconclusive [inhibitor, single point]
51 | CC(=O)Nc1ccc(S(=O)(=O)NCCC(=O)OC(C)C(=O)c2ccc(C)cc2)cc1 (stereo unspecified) |  | inconclusive [inhibitor, partial curve]
52 | COc1cc(C(=O)OCC(=O)NC2CCCCCC2)ccc1OCC(C)C |  | inconclusive [inhibitor, single point]
53 | Cc1ccc(S(=O)(=O)NCCC(=O)OCC(=O)N(C)c2ccccc2)cc1 |  | inconclusive [inhibitor, single point]
54 | Cc1ccc(C(=O)N/C(=C\c2ccc(C(C)C)cc2)C(=O)NCCCN2CCOCC2)cc1 |  | inconclusive [inhibitor, single point]
55 | CCN(CC)c1ccc(/C=N/NC(=O)CC(C)C)cc1 | inactive: 1.63% | 
56 | Clc1nn2cnnc2c2ccccc12 | inactive: 22.2% | 
57 | Cc1ccc(CNC(=O)C(=O)NCC(c2cccnc2)N2CCN(c3ccccc3F)CC2)cc1 (stereo unspecified) |  | active: 13 µM
58 | Cc1ccsc1CN(C(=O)c1oc2ccccc2c1C)C1CCS(=O)(=O)C1 (stereo unspecified) |  | active: 8.2 µM
59 | CS(=O)(=O)N1CCN(c2nnc(-c3ccccc3)c3ccccc23)CC1 | inactive: -14.9% | 
60 | CCC(=O)NC(c1ccc([N+](=O)[O-])cc1)c1c(O)ccc2ccccc12 (stereo unspecified) |  | active: 20 µM
61 | CCCS(=O)(=O)N1CCC(n2c(C(F)(F)F)nc3cccnc32)CC1 |  | active: 3.66 µM
62 | Cc1nc(NCC(=O)c2c[nH]c3ccccc23)sc1C |  | active: 6.31 µM
63 | Cc1cc(NC(=O)CSc2nnc(-c3ccoc3C)o2)no1 |  | inconclusive [inhibitor, single point]
64 | COc1cccc2sc(N3CCN(C(=O)CCS(=O)(=O)c4ccc(F)cc4)CC3)nc12 |  | active: 5.8 µM
65 | O=C(c1ccc(F)cc1)C1CCN(Cc2cn[nH]c2-c2ccc(F)cc2)CC1 |  | inconclusive [inhibitor, single point]
66 | CC(C)[C@H](NC(=O)c1ccc(Cl)c([N+](=O)[O-])c1)C(=O)NCc1ccc(Cl)cc1Cl |  | inconclusive [inhibitor, single point]
67 | Cc1ccc2nsnc2c1S(=O)(=O)N1CCCC1C(=O)O (stereo unspecified) | inactive: 7.53% | 
68 | COc1ccc(C(c2nnnn2C2CCCC2)N2CCC(C)CC2)c(OC)c1 (stereo unspecified) |  | active: 18.4 µM
69 | Cc1oc(-c2cc(F)cc(F)c2)nc1CN1CCN(C(=O)c2ccco2)CC1 |  | inconclusive [inhibitor, single point]
70 | OC1CCN(Cc2cccc(Oc3ccccc3)c2)CC1 |  | active: 23.1 µM
71 | Cc1nn(C)c(C)c1CN(Cc1nc(CCC(C)C)no1)C(C)C |  | active: 2.31 µM
